The target in assay [1] is T1, GST-PLEKHA7 (human) WW1 + WW2 domain (1-162), WT (human) (UniProt Q6IQ23).
T1 sequence: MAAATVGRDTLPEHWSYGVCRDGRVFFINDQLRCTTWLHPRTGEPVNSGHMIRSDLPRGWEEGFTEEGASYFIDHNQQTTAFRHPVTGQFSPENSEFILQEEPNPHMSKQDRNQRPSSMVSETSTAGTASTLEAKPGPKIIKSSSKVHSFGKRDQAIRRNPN
As to the kind of experiment: pull-down; GST-WW1, GST-WW2 and GST-WW1 + 2 of PLEKHA7 against the isolated WW2 domain or the WW1 + 2 domain (Fig. S4A); only the target purified.

The target in assay [2] is T2, GST-PLEKHA7 (human) WW1 domain (residues 1-56), WT (human) (UniProt Q6IQ23).
T2 sequence: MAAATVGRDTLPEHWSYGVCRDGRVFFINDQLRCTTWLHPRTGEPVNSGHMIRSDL
The description is as above.

Assay [3] addresses T3, GST-PLEKHA7 (human) WW2 domain (50-162) (human) (UniProt Q6IQ23).
T3 sequence: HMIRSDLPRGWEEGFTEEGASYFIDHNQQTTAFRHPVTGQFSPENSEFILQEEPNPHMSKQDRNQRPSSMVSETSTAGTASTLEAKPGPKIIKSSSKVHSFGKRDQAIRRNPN
The assay is described as above.

Assay [4] has as its target T4, GST-Tetraspanin 33 C-terminal (residues 256-283) (UniProt Q86UF1).
T4 sequence: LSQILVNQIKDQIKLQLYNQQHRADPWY
The experiment in a line: pull-down; tri-molecular pulldown: GST-Tspan33 C-terminal bait, WW1 + WW2 preys, with PDZD11-HA as third protein (CFP-HA as negative control); only the target purified.

In assay [5] the target is T4, GST-Tetraspanin 33 C-terminal (residues 256-283). As to the kind of experiment: pull-down; GST-Tspan33 C-terminal baits (E. coli) on GSH-Sepharose beads, PLEKHA7-WW(1 + 2)-Myc WT or mutant preys in lysate, no third protein; immunoblot; only the target purified. In general terms: A western blot detects proteins with antibodies after separation by electrophoresis.
Assay [6] addresses T5, GST-Tetraspanin 33 C-terminal Δ2 (deletion of the last 2 residues, Trp-Tyr) (UniProt Q86UF1).
T5 sequence: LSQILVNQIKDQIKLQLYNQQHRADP
The description is as above.

Assay [7] concerns the target T6, GST-PDZD11 full-length (residues 1-140), WT (human) (UniProt Q5EBL8).
T6 sequence: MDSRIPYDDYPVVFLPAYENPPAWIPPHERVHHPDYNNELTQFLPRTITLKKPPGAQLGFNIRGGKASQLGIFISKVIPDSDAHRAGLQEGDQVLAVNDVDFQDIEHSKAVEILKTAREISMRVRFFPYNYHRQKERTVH
The experiment in a line: pull-down; bait and prey switched: GST-PDZD11 as bait on GSH-Sepharose beads, WT or mutant WW1 + WW2 domains of PLEKHA7 as preys in lysate (Fig. S2, G and H); only the target purified.

This note sets out measurements from publication PMC7363125.

No constants are given. Whether binding was seen depends on the method and setting. In cells and extracts the contact can be indirect. Some entries that bind do so weakly or less than the wild type. Sequences can lack the tags named with a protein.

B1: PLEKHA7-WW(2)-Myc (residues 50-162) (domain or fragment, UniProt Q6IQ23 50-162)
chain: HMIRSDLPRGWEEGFTEEGASYFIDHNQQTTAFRHPVTGQFSPENSEFILQEEPNPHMSKQDRNQRPSSMVSETSTAGTASTLEAKPGPKIIKSSSKVHSFGKRDQAIRRNPN
Regarding B1, the binding entry in assay [1], in assay [2] and in assay [3] was “no binding” in each case.

B2: PLEKHA7-WW(1 + 2)-Myc (residues 1-162), WT (domain or fragment, UniProt Q6IQ23 1-162)
chain: MAAATVGRDTLPEHWSYGVCRDGRVFFINDQLRCTTWLHPRTGEPVNSGHMIRSDLPRGWEEGFTEEGASYFIDHNQQTTAFRHPVTGQFSPENSEFILQEEPNPHMSKQDRNQRPSSMVSETSTAGTASTLEAKPGPKIIKSSSKVHSFGKRDQAIRRNPN
Take B2: the binding entry in assay [1] is reported as “no binding”; in assay [2], “no binding”; in assay [3], “no binding”; in assay [4] it was “binds”; in assay [5] it was “binds”; in assay [6] it was “no binding”. In assay [7], the binding entry is “binds”.

B3: PLEKHA7-WW(1 + 2)-Myc (residues 1-162) T35A+H75A (domain or fragment, UniProt Q6IQ23 1-162)
chain: MAAATVGRDTLPEHWSYGVCRDGRVFFINDQLRCATWLHPRTGEPVNSGHMIRSDLPRGWEEGFTEEGASYFIDANQQTTAFRHPVTGQFSPENSEFILQEEPNPHMSKQDRNQRPSSMVSETSTAGTASTLEAKPGPKIIKSSSKVHSFGKRDQAIRRNPN
On to B3, for which the binding entry in assay [5] and in assay [7] was “no binding” throughout.

B4: PLEKHA7-WW(1 + 2)-Myc (residues 1-162) D30A (domain or fragment, UniProt Q6IQ23 1-162)
chain: MAAATVGRDTLPEHWSYGVCRDGRVFFINAQLRCTTWLHPRTGEPVNSGHMIRSDLPRGWEEGFTEEGASYFIDHNQQTTAFRHPVTGQFSPENSEFILQEEPNPHMSKQDRNQRPSSMVSETSTAGTASTLEAKPGPKIIKSSSKVHSFGKRDQAIRRNPN
For the molecule B4, the results for the binding entry in assay [5] and in assay [7] were “no binding” and “binds”, respectively.

B5: PLEKHA7-WW(1 + 2)-Myc (residues 1-162) H75A (domain or fragment, UniProt Q6IQ23 1-162)
chain: MAAATVGRDTLPEHWSYGVCRDGRVFFINDQLRCTTWLHPRTGEPVNSGHMIRSDLPRGWEEGFTEEGASYFIDANQQTTAFRHPVTGQFSPENSEFILQEEPNPHMSKQDRNQRPSSMVSETSTAGTASTLEAKPGPKIIKSSSKVHSFGKRDQAIRRNPN
B5: the binding result in assay [5] was “no binding”; in assay [7] it was “binds”.

B6: PLEKHA7-WW(1 + 2)-Myc (residues 1-162) D30A+H75A (domain or fragment, UniProt Q6IQ23 1-162)
chain: MAAATVGRDTLPEHWSYGVCRDGRVFFINAQLRCTTWLHPRTGEPVNSGHMIRSDLPRGWEEGFTEEGASYFIDANQQTTAFRHPVTGQFSPENSEFILQEEPNPHMSKQDRNQRPSSMVSETSTAGTASTLEAKPGPKIIKSSSKVHSFGKRDQAIRRNPN
On to B6, for which the binding entry in assay [5] and in assay [7] was “no binding” each time.

B7: PLEKHA7-WW(1 + 2)-Myc (residues 1-162) T35A (domain or fragment, UniProt Q6IQ23 1-162)
chain: MAAATVGRDTLPEHWSYGVCRDGRVFFINDQLRCATWLHPRTGEPVNSGHMIRSDLPRGWEEGFTEEGASYFIDHNQQTTAFRHPVTGQFSPENSEFILQEEPNPHMSKQDRNQRPSSMVSETSTAGTASTLEAKPGPKIIKSSSKVHSFGKRDQAIRRNPN
As to B7, the binding result in assay [5] was “no binding”; in assay [7], “binds”.
